Test results: the supplement of paper PMC11417369
Some of the results follow.

Test system: PfSIP2 AP2 domain 1 (GST-tagged)
Experiment: gcPBM binding intensity (ln(normalized median fluorescence intensity)); higher = stronger DNA binding
Method in brief: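 Using an Agilent 4 × 180k array, primer-extended double-stranded 36-bp intergenic genomic probes and negative controls were exposed for 1 h to GST-fused P. falciparum DNA-binding domains expressed in E. coli. Binding was carried out in 1× PBS with 1% milk, 0.2 mg/ml BSA, 0.5% salmon testes DNA and 0.03% Triton X-100, and protein was detected with Alexa488 anti-GST antibody and a 488 nm scan. Binding intensity is the highest Masliner-normalised natural-log median intensity across replicate spots of either probe orientation.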

| Sequence | gcPBM binding intensity (ln) |
| --- | --- |
| TATAAACCCACCTACACACACAACGTAAATGCATTG [CACACA_site2238] | 7.01 |
| ATTTAACAACTTCAAACACACAATATAGATTTATAT [CACACA_site7067] | 7.07 |
| AATAATTAAAATTATCTACACACCTTTATAAATATA [CACACA_site9300] | 6.77 |
| AATTTAAACAAGGATCCACACACCCCAAAAAAAAAA [CACACA_site8125] | 7.2 |
| GCCATTAATTTATACACACACATTATGATTTTTTAT [CACACA_site754] | 7.33 |
| CCTGAACACATACATACACACACACTAATAAAAAAA [CACACA_site8023] | 7.51 |
| ATGCATATGTTTATTGCACACACCAAAAAGAAAACA [CACACA_site403] | 7.43 |
| TACAAACTATGATGCACACATATATATATGTATACA [CACACA_site1226] | 7.31 |
| AAAATGTGCCCACGCGTACACACAAAAAAAGAAAAA [CACACA_site2004] | 7.9 |
| TTATATTATGCTTGAATGCACTTTGAAGCACAATCT [GTGCAC_site9789] | 9.16 |
| AATATATAATTTTATAGTACATAATAAAAGAACAGG [XGTACX_site724] | 7.65 |
| TTTAATTTTTTTTAAACACACACATTACATTCAAAA [CACACA_site7926] | 6.93 |
| TATTCAACATAATATGCACACAAAAATTATGGAACG [CACACA_site8660] | 7.7 |
| ATCACATAAAATATGAATATATATTTTATATATATA [CACACA_negctrl_site340] | 7.58 |
| TTAAAAAAAAAAAGGTGTACTATAATTTAATATCAC [XGTACX_site6316] | 6.95 |
| TATATTTACGTATGTCGAACGTTATTTTGAACAACC [CACACA_negctrl_site1261] | 7.11 |
| CGTTTATATAGTGATGCATGCATTGTTAACATGGTT [TGCATGCA_site418] | 6.94 |
| TTTATACACAAAAAATGTACATATATATAATGAATT [XGTACX_site1195] | 7.4 |
| TGTATGTCTTTATTTTGTACACAATATAAAAAATTA [XGTACX_site5441] | 7.55 |

| Sequence | gcPBM binding intensity (ln) |
| --- | --- |
| CGCACAAAAATATACACACACACATATATATTTATT [CACACA_site3645] | 7.21 |
| TAATAATAAATTGGTTGTACAACCTTATACAGAATA [XGTACX_site2592] | 7.31 |
| ACACAAAAAATAAAAATATATATATATTATATATAT [CACACA_negctrl_site1489] | 7.87 |
| TAAAAAAATATATATACATGCATAGAAAAAAAAAAA [TGCATGCA_site552] | 6.96 |
| TTTTTTTATTAAAAATGTACAAAAATGAAAAAATAA [XGTACX_site8279] | 7.08 |
| CATATAATTTTATGGGTGCATTTTTTTGTAAGACCA | 11.1 |
| TTTTAAACAAAAATTTGTACACAATAATTAAATATA [XGTACX_site6755] | 7.22 |
| ATTTAATTTTTTTTTTTTTTTTTTCAATCCCCTTTT [CACACA_negctrl_site1013] | 6.74 |
| CATTTTAAAGAAAATACACACAAAAATAAATATATA [CACACA_site1395] | 6.88 |
| TATACATATGAAAATACACACATACATACATATATA [CACACA_site8484] | 6.95 |
| ATTATACATATATAAGTGCAATAATGTTTTTTCCTT | 7.51 |
| AAGGTATATATAACTACACACTTATATATAATCTAA [CACACA_site92] | 6.91 |
| TGTAGTCTGGAGAAAAGTACATAGTATCTGGTAACC [XGTACX_site2025] | 7.01 |
| TAATAAAATATGTACACACATACACCCATATATATA [CACACA_site1220] | 7.36 |
| AACAGACAGAAACACACACACATATATATATATATA [CACACA_site3394] | 9.24 |
| ATTTTCCAAAATAATTGTACAGGAAAGAAATAATTA [XGTACX_site7424] | 6.92 |
| ATACATATTTTACATTCACACAACAAATTTATATTT [CACACA_site4700] | 7.43 |
| AGGAACAAAATATACTGTACTTTATTATTTTCAAAA [XGTACX_site4421] | 6.98 |
| ATATATTTTAATTGATGTACTTTTTTATGTTAATGA [XGTACX_site4316] | 7.03 |

| Sequence | gcPBM binding intensity (ln) |
| --- | --- |
| TTACTTTTAACAAATGTGCGCAGTTATCACACAGAC | 7.61 |
| TATATTTTGTTCTGTTGTACTAAAAAAATCTTTATA [XGTACX_site8372] | 7.2 |
| ACAAAACAAAAAAACTCACACATATACGGCATGTCA [CACACA_site5608] | 6.92 |
| ATTTATTTATTTATATGTACATATTTAAAGAGTTCA [XGTACX_site7631] | 7.02 |
| ATATATATATATATATGTACTAAGAATTCTTTAAAA [XGTACX_site8476] | 9.68 |
| ACACATAATATGTGTAGTACTTTTTCTTTAACATTA [XGTACX_site1436] | 7.1 |
| AACAGTAACATTGAATGTACTTAATTTTAAGAAAAT [XGTACX_site2971] | 7.01 |
| TATAAATATAAATATACACACATATATTTATTTATA [CACACA_site6890] | 6.88 |
| TTAAAATAAAGAAAATGTACATAAATTAAAATAAAG [XGTACX_site2281] | 7.34 |
| TTTTTTTTTTTTTTTATAGTACATTACCAAAAAAAA [CACACA_negctrl_site1197] | 6.98 |
| ATTTATTGACTATTTACACACATATTTATTATAATA [CACACA_site1624] | 7.14 |
| TGGGTAAACAGACACACACACATATAGATTTATATA [CACACA_site7026] | 6.95 |
| AAATTATATGAACATTGTACTTTATATATGTAAGAA [XGTACX_site1611] | 7.29 |
| CTTCCAATAAAAAATGCACACATTGAAAATATTGAA [CACACA_site2688] | 7.37 |
| ACACACATATATACATGTACATATATATATATATAT [XGTACX_site451] | 9.41 |
| TATTTTGTTCTTTCCACACACAAATACAGATATTGT [CACACA_site6097] | 7.18 |
| TCTTATCCATATATTACACACTATAAATAGAAATTA [CACACA_site6274] | 7.38 |
| ATTTGTATATATTAATGTACACACATGCGTATGTTC [XGTACX_site7579] | 6.93 |
| TTTATTTTATTTTCATGTACAAAAGGGGAATAATAA [XGTACX_site2704] | 7.36 |
